Results from the supplement of paper PMC3334620.
The full ranking holds about 33,000 sequences; the median of “E-score (-0.5 to 0.5)” is about -0.036, and the highest 2% start at about 0.37. The list shows a part of the results.

Molecular target: T1, Yer064c (UniProt P40041)
T1 sequence: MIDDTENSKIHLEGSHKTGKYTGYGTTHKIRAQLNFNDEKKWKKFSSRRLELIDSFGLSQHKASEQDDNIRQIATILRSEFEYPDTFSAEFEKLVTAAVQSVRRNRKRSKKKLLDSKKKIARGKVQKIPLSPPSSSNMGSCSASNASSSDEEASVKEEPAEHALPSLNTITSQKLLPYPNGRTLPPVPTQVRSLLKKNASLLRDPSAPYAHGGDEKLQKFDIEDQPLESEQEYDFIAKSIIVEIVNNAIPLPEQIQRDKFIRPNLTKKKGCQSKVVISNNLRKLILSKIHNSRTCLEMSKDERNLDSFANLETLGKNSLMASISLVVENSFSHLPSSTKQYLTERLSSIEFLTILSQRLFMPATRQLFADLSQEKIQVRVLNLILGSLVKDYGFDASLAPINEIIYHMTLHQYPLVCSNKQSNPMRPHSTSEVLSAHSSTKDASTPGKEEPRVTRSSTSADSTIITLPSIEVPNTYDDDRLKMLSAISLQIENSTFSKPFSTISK
Experiment: PBM E-score (8-mer binding enrichment) (E-score (-0.5 to 0.5)); higher = stronger / more preferred TF binding; most listed sequences are background and not binding sites
Conditions: protein concentration: 200 nM; construct: GST-full length
Experimental: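 Universal 'all 10-mer' protein binding microarrays (Agilent AMADID 015681) probed with GST-tagged S. cerevisiae TFs (full-length or DBD) made by in vitro transcription/translation (PURExpress), about 100-200 nM. Bound TF was detected with fluorescent anti-GST. Each ungapped 8-mer (which stands for itself and its reverse complement) is scored by the PBM enrichment score (E-score), a modified Wilcoxon-Mann-Whitney statistic from -0.5 to +0.5, computed with the Universal PBM Analysis Suite. Scale: above 0.35 generally sequence-specific binding.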

Sequence	PBM E-score
CTGTCACA	0.16
AAAAATTA	0.00283
GAAAGCCA	-0.256
ATGCGTGC	-0.115
GAATGTCC	-0.25
AACTTTAA	0.088
TAGCTGGA	-0.132
ATGAAGAC	0.218
AAGGATCA	-0.00659
ATAAGGCA	-0.242
CTCGTGGA	-0.0466
GAGCGTGA	0.114
CGTACGCC	-0.248
GGGAGCTA	-0.13
ATGAGTTG	0.194
ATGTAGAA	-0.1
CACAGTTA	0.123
CAATCAAG	0.212
AAATCGCC	-0.0827
CGAAAAGA	0.134
ACTAGGCG	0.151
CGAATCGA	-0.0366
TGCAAACA	-0.0702
ATCCCGCG	-3e-05
CGTTGCTC	-0.165

Sequence	PBM E-score
GTTGTAGA	-0.00357
AAGCAGAT	-0.0385
CGTGTCTC	0.15
ACGATACC	-0.0834
ATGTCACC	-0.0394
CGTACACA	0.136
TGCGATAA	0.152
CCTTCCTC	-0.146
CACTAACG	0.045
CGGTAAAA	-0.035
GACCTGCC	-0.227
GCGTGACC	-0.0719
GAATATTC	-0.161
CACAGAGA	-0.109
AAGCCCAA	-0.143
CAACCGGA	-0.109
CAATCTAG	0.0601
AACGTGGC	-0.0783
CGATCCGC	-0.0227
ACTCGGGA	0.0782
AGTATTAC	0.12
AGTTACTG	-0.0574
CCCTCAGG	-0.245
ACTGAAAT	0.267
ATGATGTC	0.148

Sequence	PBM E-score
AGAAATGG	-0.0961
CCTGGCTA	0.068
CAGGAGTC	0.394
CACAAGGC	-0.273
TGAGCTCA	0.228
AGACTGGA	0.0828
AATGTCCG	-0.125
CACATGTG	0.242
CATCAACA	0.0384
AAGCGAAC	-0.0971
ATACGACC	-0.0723
CGCGCTCA	0.0568
CTGGGCTA	-0.161
CTATTTCA	-0.00598
AAATCATA	0.387
AGCGACGG	-0.139
ACGAGCAG	-0.0979
CGCCAGGA	0.0372
ACATTGGC	0.00362
CATCTTCC	-0.0466
ACCGTCGT	-0.11
CACCGGAC	-0.11
GGGCGAAC	-0.022
CGGGCGAA	-0.264
GTCGGTTA	-0.00314

Sequence	PBM E-score
CGGAGAGA	-0.254
AGGCGAAA	-0.0906
TAGCGATA	-0.0837
CAGGATGG	-0.0373
CAGGTTAC	-0.0481
AACCATGA	0.254
ATCCAACG	-0.0882
AATGCATT	-0.128
ACCCAGTG	-0.135
AAGGAAAC	-0.248
GAATCCAA	0.0792
GACGGGAC	-0.185
ACACACTA	0.0396
ATGTCCGA	-0.183
AATGGGGC	-0.0696
AGTGGACC	-0.209
CAGGGATG	-0.026
CTGTAACC	0.0858
CATTAAAC	0.0756
CGATTTAA	0.188
GCTCTCCC	-0.234
AAAATATT	-0.054
AAAGCATG	-0.183
CCGGGAAA	-0.186
ATTATGCA	-0.0339

Sequence	PBM E-score
GGGAGGGA	-0.315
CATAAATC	0.102
GATTTGGA	0.0961
GAGTAACA	0.238
ATCTTCTA	0.0654
AAGGGTCA	-0.00535
CACCCTGC	0.118
ACGGAAGC	-0.103
TACCTCAA	-0.222
GCATTCCC	-0.238
CGCCAGCG	-0.242
AAGGTTTA	0.0546
ACATGATC	0.144
TTGTGAAA	-0.0107
ATATTCCC	-0.0548
GAATTGCC	-0.288
ATCAACTA	0.23
ACATACCC	0.0801
GCAAAGGA	-0.242
CAAGAGGA	0.0625
AAAGCAGA	-0.0106
GACCAACC	-0.131
CCTTAAAG	-0.0257
ATACAGAA	0.101
CATGGCGG	-0.109

Sequence	PBM E-score
CCGTGGCG	-0.0658
CATTTAGG	-0.233
AGCTGGTG	-0.104
GCTTCGGA	0.0239
CTGCAGAA	0.189
CCGTTCGA	0.0719
CGCGGCTC	-0.0621
CAAGTTCA	-0.0553
GATTATGA	0.38
CAGATGCA	-0.0152
AACCACGA	0.122
CATAACCC	-0.13
AGAAACAA	0.127
GAATTGTA	-0.0335
CTTGCAAA	0.00343
CCCGCCGA	-0.0331
ACATTAAG	-0.0309
ACCGGTTA	-0.178
CCCAAGGC	-0.137
GGAGGCTA	-0.16
GTTGGGTA	-0.0328
ATAATCGC	0.215
CCAAAAAG	0.0109
GTGTTATA	0.0231
ACCACGGG	-0.0993

Sequence	PBM E-score
AATTTTAC	0.0888
GCCCCCCC	-0.373
AATTAGCT	-0.0995
CTGCGGAA	-0.215
AGCGCGAA	-0.0273
GATATTCA	0.0482
AGGGTTCG	-0.311
TCCTTGAA	0.0522
CCAGGTCC	-0.206
ACGGATAT	-0.0603
TATTGACA	0.037
CGACATCG	-0.144
GTTATCTA	-0.0346
ACAGCCCT	-0.241
CTCTCACC	0.0427
GACCAGCA	-0.263
AACACCGT	-0.0515
CCCTCTTA	-0.103
CAACGTAC	-0.0947
AAGGCTTG	-0.0382
ACTAAATA	0.192
CCAGCGGA	-0.225
CGATAGCG	-0.225
ACGCATGC	0.0119
GTCGCGGA	0.0142

Sequence	PBM E-score
CTATAATA	-0.109
AGGGGTAT	-0.144
CAAGCATA	-0.1
GCATAGGC	-0.2
CACATCCA	0.0287
AACATAGC	-0.0258
ACGCCGTA	-0.0409
CCAAATAC	-0.298
ACAACACT	0.19
CTTGCAGA	-0.0612
CTCGGAAA	0.157
GGATGTTA	-0.252
GTAAAAGA	0.0853
ACCAAAGT	0.0594
ACAGCTGG	-0.173
TTCCTCAA	-0.0537
AACCAGTG	-0.152
CGAAGCAG	-0.234
GAAAGCGC	-0.158
GAACCTTC	-0.0748
CTAATTTA	0.146
CCTAGACG	-0.177
CACTGCAG	-0.103
ATACCACG	-0.0783
AGATTCGC	-0.0217

Sequence	PBM E-score
ATGGCGTG	0.12
CGTGTACA	-0.112
CACTTTAA	0.0926
ACCTTTTA	-0.0549
CCGCCGCG	-0.032
ATCCTTTG	-0.1
CACTTTTC	0.0572
GTATGCAC	-0.0694
GATCGGCC	-0.2
CCTGGATA	-0.134
AAAATCCT	-0.0376
ATGCCCGG	-0.0401
ACCAGCTC	-0.107
CGTCAACG	0.0184
TAAGTTAA	0.208
ACATCGCG	-0.244
CCTGCCGC	-0.296
TCGGTAAA	0.0338
GATTGTGC	0.124
AGATACTC	0.156
ACTGACGA	0.204
AGTCTCCG	0.345
GAAAAATA	0.0112
GCTGCCAC	-0.212
AAGGACAT	-0.146

Sequence	PBM E-score
GAGTACTC	0.381
GCAGTGTA	-0.0366
TGGTGGAA	-0.132
AGGAGCCA	0.16
AACACTCA	0.102
ACAGGCCG	-0.134
ATTTCTTG	0.117
AAGTCCAT	0.0523
GACGCAAC	-0.248
ATCCATCC	0.0305
ACAAGGTC	0.00971
AAGCGGAA	0.0176
CATCATGC	0.0857
GTAAGCCA	-0.132
GCACTTCA	-0.231
CGGATCTC	-0.298
CATCACCG	0.156
GAGCCACC	0.182
ATGCAAAA	0.0615
TCTGAAAA	-0.1
CATATAAA	-0.0573
CTCTCGGA	0.144
CCTCGAAC	-0.109
CCCATATA	0.155
GGGACACA	0.0557

Sequence	PBM E-score
AGTGAAAC	-0.00547
CATTATGC	-0.0366
CCCATCCG	-0.0756
ATATTCTC	-0.00287
CATATGAC	0.289
GAGTTACA	0.178
CCTGGCGC	-0.0612
AGTTCACG	0.0532
CCGAGAAG	-0.101
CCGACAAA	-0.0238
AAGTTCAC	0.0164
CGCTTCGC	-0.196
CAACTCCC	-0.15
CGGTGAGC	-0.0299
ATAGTGTC	-0.065
AACCGAAC	-0.139
CCGCTCGA	-0.132
CGCAAGTA	-0.0674
CCTGTCTA	-0.0113
AATGGACA	-0.0288
GCGGAGAA	-0.124
TGTTATAA	0.036
CCTCGTGA	0.0458
ATTCACGG	0.196
GTTAAGAA	-0.0868

Sequence	PBM E-score
AGCTAGTG	-0.256
CCCTGTAC	-0.192
CAACCCAC	-0.0875
AACCCAAT	0.137
AACACTTC	-0.112
ATCGGCAC	-0.0695
CTATGGGC	-0.019
ACCACCCT	-0.0168
GCCCGGGA	-0.176
CCCCGCGC	-0.432
CGGAATCA	0.392
CACGTATG	0.0639
AAATGGAG	0.0807
GGCCTTCA	-0.0776
AACCGACA	-0.0888
CAATTTGG	-0.132
ACACGGGA	-0.116
CGTACCGC	-0.244
CTCCCACA	-0.173
GCTTGTCA	-0.0506
AGCCTACC	-0.117
AATATACG	-0.142
CGTGTCGA	-0.134
GCAATAAA	0.17
CATAACTC	0.133

Sequence	PBM E-score
CAGGCAAC	-0.126
CCGCACTC	-0.148
AAGTCTAC	0.0107
AACAAGGT	0.0245
ATAAATTC	-0.102
TACTCCCA	0.131
GCCCCAGA	-0.151
CCACACCC	-0.221
CATGATCG	0.0767
CGCATATC	-0.0187
CAGGCTAC	-0.149
CTGGTCAC	0.0888
ACGTGGAC	-0.0541
CAAAGCCC	-0.228
AGGAGTTG	-0.0388
ACCGGACA	-0.137
CGGCTAGA	-0.186
AACCTTCA	0.093
AAGCATAT	0.0236
AAGATACT	-0.0549
AATGTGGC	-0.185
GCGAGCGA	-0.108
ACCCTCAG	-0.0413
ATCGCATG	0.0924
ATAATGTG	0.13

Sequence	PBM E-score
ATCTGACG	-0.12
CGTATAAG	-0.0799
CGATTAAG	0.153
CACCCTAG	-0.0277
AATAGATT	0.0759
ACGACAGC	-0.0135
AGAGGTGA	0.0588
CTTAGTAC	0.0958
GCACCAAA	-0.105
ATCCAGAC	-0.221
GAAAACAC	0.00149
ATGGAACG	-0.255
AGTTAATC	0.36
AGTCAACG	0.443
AGTTGCGG	0.0254
ACAGTTAA	0.149
AGCCGTGA	0.102
ACGCCCTA	-0.314
GTTAATCA	0.451
